Test results: PubChem BioAssay AID686970 (National Center for Advancing Translational Sciences (NCATS), 2013)
Values joined by “and” are separate entries in the source; they are usually repeats but may differ in a detail not shown here. Equal entries are not always repeated. In all, about 360,000 compounds went through this assay and about 6,000 (1.7%) were called active. This list was built around the results that the source calls inconclusive (neither active nor inactive); the mix of calls is not that of the screen. Calls follow the shape of the dose curve; as a rule, active = well fitted cell-killing curve with a large enough effect; inconclusive = small, poorly fitted or top-dose-only effect, or effect the other way; inactive = flat fitted curve, though single readings scatter. Potencies of inconclusive entries are doubtful fits and often do not repeat.

assay: qHTS for induction of synthetic lethality in tumor cells producing 2HG: qHTS for the HT-1080-NT fibrosarcoma cell line; conditions: HT-1080-NT fibrosarcoma viability, CellTiter-Glo ATP luminescence, 48 h; activity, negative = less viability: at 46.1 µM (top of the series) unless noted;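 also: NT is the 2HG producing partner of a matched IDH1 knockdown line; nearly all actives have a fitted effect of over 55% in size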;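 as to activity, negative = less viability: 0% = DMSO-treated cells and -100% = media-only wells without cells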
Summary of the method: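 A 48-hour cytotoxicity screen used HT-1080-NT cells plated 2 hours before compound delivery. ATP-based CellTiter-Glo luminescence measured viability, normalized to DMSO and no-cell controls.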
Potency is read from the fitted curve at half-maximal effect; tags tell the direction and shape of the fitted curve.

Structure (SMILES)	Potency	activity, negative = less viability
CCN1CCN(CCCNC(=O)c2ccc(CS(=O)c3ccc(Br)cc3)o2)CC1 (centres undefined)	inactive	
CCOC(=O)[C@]12CCC=C1N(Cc1ccccc1)C(=O)[C@H](CC(=O)NCC13CC4CC(CC(C4)C1)C3)C2	inconclusive: 25.9 µM [cytotoxic, single point]	
CNC(=O)/C(C#N)=C/c1cc(C)n(-c2ccc(N3CCOCC3)cc2)c1C	inactive	
COc1ccc(C2C(C(=O)Nc3cc(OC)c(OC)c(OC)c3)c3ccccc3C(=O)N2C)cc1 (centres undefined)	active: 1.46 µM	
CC(=O)Oc1ccc(N(C(C)=O)S(=O)(=O)c2cccs2)c2ccccc12	inconclusive: 22.4 µM [cytotoxic, single point]	
COc1ccc(C(=O)/C=C2/C(=O)Nc3ccccc32)c(OC)c1	active: 18.4 µM	
COc1ccc(/C=C/C(=O)NC(=S)NCCc2ccc(OC)c(OC)c2)cc1	active: 11.2 µM	
O=C(CCS(=O)(=O)c1ccc(Cl)cc1)Nc1nnc(-c2cccs2)o1	inactive	
OCC1(Cc2cccc(Cl)c2)CCCN(Cc2ccc3cc(F)ccc3n2)C1 (centres undefined)	inconclusive: 29.1 µM [cytotoxic, single point]	
CCc1ccc(/C(C)=N/Nc2cc(Cl)nc(C)n2)cc1	inconclusive: 35.5 µM [cytotoxic, single point]	
COc1ccccc1-c1oc2ccccc2c1-c1ccc2c(c1)OCO2		inconclusive: 19%
CCOc1ccc(C(c2c(NC(=O)c3ccccc3)sc(C)c2C)N2CCN(CCO)CC2)cc1 (centres undefined)	inconclusive: 23.1 µM [cytotoxic, partial curve]	
COCCOC(=O)N1CCCCC1c1cc(C(=O)Nc2cccc3c2CCCC3)no1 (centres undefined)	inconclusive: 20.6 µM [rising, partial curve]	
Cc1ccc(OCCCCCCN2CCNCC2)cc1	inconclusive: 14.6 µM [cytotoxic, partial curve]	
Cc1ccccc1-n1nnnc1Sc1nnnn1-c1ccccc1	inconclusive: 8.2 µM [cytotoxic, partial curve]	
CCN1/C(=C2\OC(=S)N(C)C2=O)C=Cc2ccccc21	inconclusive: 25.9 µM [rising, single point]	
COc1cc(C(F)(F)F)nc2ccc(C#CCOC(=O)Nc3ccccc3)cc12	inconclusive: 29.1 µM [cytotoxic, single point]	
CC(=O)Nc1ccc(CNc2nc3cc(-c4cccc(C(F)(F)F)c4)sc3c(=O)n2C)cc1	inconclusive: 2.06 µM [cytotoxic, full curve, poor fit]	
O=C(/C=C/c1ccccc1[N+](=O)[O-])c1ccc(F)cc1	inconclusive: 29.1 µM [cytotoxic, single point]	
CN1/C(=C\C(=O)COc2ccc3c(c2)OCO3)C(C)(C)c2ccccc21	inactive	
CCOC(=O)[C@]12CCCC=C1N(Cc1cccc3ccccc13)C(=O)[C@H](CC(=O)N1CCSCC1)C2	inconclusive: 29.1 µM [cytotoxic, single point]	
Cc1cc(NC(=O)C(C)SCC(=O)Nc2ccccc2C(C)(C)C)no1 (centres undefined)	inactive	
NNC(=O)c1nn(-c2ccc(Cl)cc2)cc1O	inconclusive: 23.1 µM [cytotoxic, single point]	

Structure (SMILES)	Potency	activity, negative = less viability
CC1CN(c2nc3ccccc3nc2SCC(=O)Nc2cccc(C(F)(F)F)c2)CC(C)O1 (centres undefined)	inconclusive: 20.6 µM [cytotoxic, single point]	
O=c1cc2oc3cc(O)c(O)cc3c(-c3ccccc3[N+](=O)[O-])c-2cc1O	active: 14.6 µM	
COc1ccccc1Nc1nc(C)nc2c1oc1ccccc12	inconclusive: 18.4 µM [cytotoxic, single point]	
COc1cc(C(=O)Nc2ccc(N(C)C)cc2)cc(OC)c1OC	inconclusive: 35.5 µM [cytotoxic, single point]	
N=c1ccn(Cc2cccc(F)c2)cc1	inconclusive: 29.1 µM [cytotoxic, single point]	
CCC1CN(C(=O)N2CCC(C(=O)NCc3ccc(OC)cc3OC)CC2)c2ccccc2O1 (centres undefined)	inactive	
COc1ccc(/C=C\C(=O)c2c(O)ccc3c(C)cc(=O)oc23)cc1OC	inconclusive: 20 µM [cytotoxic, partial curve, poor fit] and inconclusive: 16.4 µM [cytotoxic, single point]	
CCCOc1c(Br)cc(/C=N/O)cc1OC	inconclusive: 29.1 µM [cytotoxic, single point]	
O=C(NC1CCCCC1)c1sc(=S)n2c1[nH]c(=O)c1ccccc12	inconclusive: 18.4 µM [cytotoxic, single point]	
C=CCn1c(-c2cc(-c3ccccc3)sc2N)n[nH]c1=S	inactive	
O=C(c1ccc(COc2ccccc2Cl)o1)N1N=C(C(F)F)CC1(O)C(F)F (centres undefined)	inconclusive: 29.1 µM [cytotoxic, partial curve]	
COc1cc(C2CC(c3cccs3)=NN2C(=O)CCl)ccc1OC(F)F (centres undefined)	active: 1.64 µM	
Cc1cc(-c2ccc(C)c(S(=O)(=O)NCc3ccc(Br)cc3)c2)on1	inconclusive: 18.4 µM [cytotoxic, single point]	
O=C(CN1C(=O)NC2(CCSC2)C1=O)NCc1ccccc1 (centres undefined)	inconclusive: 5.8 µM [rising, partial curve, poor fit]	
CC1(C(=O)Nc2ccc3[nH]ncc3c2)CCN1C(=O)CCc1ccccc1 (centres undefined)	inactive	
COc1ccccc1-c1ncn(Cc2cccc(-c3ccccc3)c2)c1-c1cc(C)cc(C)c1	inconclusive: 29.1 µM [cytotoxic, single point]	
CC(C)(C)c1ccc(-c2nnc(SCCC#N)n2C2CCCC2)cc1	inconclusive: 23.1 µM [cytotoxic, partial curve]	
CCOc1ccc(OCC)c(NC(=O)C2CCN(c3cnccn3)CC2)c1	inactive	
CCOc1ccccc1N1CCN(C(=O)c2cc3c(C)cc(C)cc3[nH]2)CC1	inconclusive: 20.6 µM [cytotoxic, partial curve]	
O=C1CC(NNc2ccccc2)C(=O)N1c1ccccc1 (centres undefined)		inconclusive: -31.5% [cytotoxic]
O=C(CSc1n[nH]c(-c2ccccc2)n1)N1CCOCC1	inactive	
CCCOc1ccc(CCc2n[nH]c(=S)n2-c2ccccc2)cc1	inactive	
CCn1c(CCCOc2ccc(Cl)cc2Cl)nnc1SCC(=O)Nc1cc(F)ccc1C	inconclusive: 11.6 µM [cytotoxic, partial curve]	

Structure (SMILES)	Potency	activity, negative = less viability
CCc1c(-c2ccccc2F)ncn1Cc1cccc(-c2ccccc2)c1	active: 16.4 µM	
CN(C)S(=O)(=O)c1cccc(-c2nn(-c3ccccc3)cc2/C=C2\SC(=S)NC2=O)c1	inconclusive: 25.9 µM [cytotoxic, single point]	
N#C/C(=C/c1ccc(Sc2nc3ccccc3[nH]2)o1)c1cccc(F)c1	inconclusive: 35.5 µM [cytotoxic, single point]	
CC1CCCC(NC(=S)Nc2ccc(SC(F)F)cc2)C1C (centres undefined)	inconclusive: 23.1 µM [cytotoxic, single point]	
O=C(CC(=O)NC1CCCCC1)N/N=C/c1ccc(Cl)cc1	inactive	
COC(=O)c1ccccc1N/C=C1\CCc2c(c(C)nn2-c2ccccn2)C1=O	inactive	
CC(C)CCNc1nc(-c2ccco2)c2c(c1C#N)CCCC2	inconclusive: 29.1 µM [cytotoxic, single point]	
COc1cc(/C=C2/C(=O)c3cccc([N+](=O)[O-])c3C2=O)c(Br)cc1O	inconclusive: 23.1 µM [cytotoxic, single point]	
COc1cc2c(cc1NC(=O)c1cccc([N+](=O)[O-])c1)oc1ccccc12		inconclusive: -5.24% [cytotoxic]
CC(C)(C)NCC(O)COc1ccccc1C(=O)CCc1ccccc1 (centres undefined)	active: 15.8 µM	
COc1ccc(CC(=O)Nc2ccc(-c3cn4ccccc4n3)cc2)cc1	inconclusive: 20.6 µM [cytotoxic, single point]	
O=C(N/N=C/c1cc([N+](=O)[O-])ccc1O)c1cccc2cc[nH]c12	inconclusive: 18.4 µM [cytotoxic, partial curve]	
Cc1onc(-c2ccc(Cl)cc2)c1-c1ccnc(SCC(=O)Nc2ccc(C(C)C)cc2)n1	inactive	
Cc1[nH]c2ccc(C(=O)N3CCN(c4cccc(Cl)c4)CC3)cc2c1C	inconclusive: 7.31 µM [cytotoxic, partial curve]	
Cn1ncc2c(Nc3ccc(Br)cc3)nc(Nc3ccc(Br)cc3)nc21	inconclusive: 18.4 µM [cytotoxic, single point]	
O=C(NCCNS(=O)(=O)c1cccc(C(F)(F)F)c1)c1cc(OCC(F)(F)F)ccc1OCC(F)(F)F	inconclusive: 29.1 µM [cytotoxic, single point]	
COc1cc(/C=C/C(=O)Nc2nc3ccc(S(=O)(=O)NC(C)C)cc3s2)cc(OC)c1OC	inactive	
CCCCNCC1C(Oc2ccc(Cl)cc2)C(=O)N1c1ccccc1C (centres undefined)	inconclusive: 20.6 µM [cytotoxic, single point]	
COCCn1c(SCC(=O)c2ccc(Cl)cc2)nnc1C(C)C	inconclusive: 29.1 µM [cytotoxic, single point]	
O=C(NC1CCCCC1)c1ccc(-c2ccc(Cl)cc2)o1	active: 18.4 µM	
O=C(NCc1ccc(F)cc1)C1CCCN(C(=O)NCc2ccccc2)C1 (centres undefined)	inactive	
NC(Cc1ccc(F)cc1)c1csc(Nc2nccc(C(F)(F)F)n2)n1 (centres undefined)	active: 23.1 µM	
COc1ccc(C(=O)Nc2ncc3c(n2)-c2ccccc2CC3)cc1	inconclusive: 11.2 µM [cytotoxic, single point]	
